{"source": "patent US20210060169A1", "about": "(Kyowa Kirin, published 2021)", "binders": {"B1": {"name": "8His-IL-2 (ligand)", "chain": "not shown"}, "B2": {"name": "8His-T101(oAzZK)-PEG4 (ligand)", "chain": "not shown", "modifications": "101: (oAzZK)-PEG4 (DBCO-PEG4-FLAG DYKDDDDK)"}, "B3": {"name": "8His-T7(oAzZK)-PEG4 (ligand)", "chain": "not shown", "modifications": "7: (oAzZK)-PEG4 (DBCO-PEG4-FLAG DYKDDDDK)"}, "B4": {"name": "8His-S6(oAzZK)-PEG4 (ligand)", "chain": "not shown", "modifications": "6: (oAzZK)-PEG4 (DBCO-PEG4-FLAG DYKDDDDK)"}, "B5": {"name": "8His-F78(oAzZK)-PEG4 (ligand)", "chain": "not shown", "modifications": "78: (oAzZK)-PEG4 (DBCO-PEG4-FLAG DYKDDDDK)"}, "B6": {"name": "8His-Q126(oAzZK)-PEG4 (ligand)", "chain": "not shown", "modifications": "126: (oAzZK)-PEG4 (DBCO-PEG4-FLAG DYKDDDDK)"}, "B7": {"name": "8His-S5(oAzZK)-PEG4 (ligand)", "chain": "not shown", "modifications": "5: (oAzZK)-PEG4 (DBCO-PEG4-FLAG DYKDDDDK)"}, "B8": {"name": "8His-R81(oAzZK)-PEG4 (ligand)", "chain": "not shown", "modifications": "81: (oAzZK)-PEG4 (DBCO-PEG4-FLAG DYKDDDDK)"}, "B9": {"name": "8His-E60(oAzZK)-PEG4 (ligand)", "chain": "not shown", "modifications": "60: (oAzZK)-PEG4 (DBCO-PEG4-FLAG DYKDDDDK)"}, "B10": {"name": "8His-S4(oAzZK)-PEG4 (ligand)", "chain": "not shown", "modifications": "4: (oAzZK)-PEG4 (DBCO-PEG4-FLAG DYKDDDDK)"}, "B11": {"name": "8His-S99(oAzZK)-PEG4 (ligand)", "chain": "not shown", "modifications": "99: (oAzZK)-PEG4 (DBCO-PEG4-FLAG DYKDDDDK)"}, "B12": {"name": "8His-H79(oAzZK)-PEG4 (ligand)", "chain": "not shown", "modifications": "79: (oAzZK)-PEG4 (DBCO-PEG4-FLAG DYKDDDDK)"}, "B13": {"name": "8His-L94(oAzZK)-PEG4 (ligand)", "chain": "not shown", "modifications": "94: (oAzZK)-PEG4 (DBCO-PEG4-FLAG DYKDDDDK)"}, "B14": {"name": "8His-E100(oAzZK)-PEG4 (ligand)", "chain": "not shown", "modifications": "100: (oAzZK)-PEG4 (DBCO-PEG4-FLAG DYKDDDDK)"}}}
{"biological_target": "T1, human CD122 ECD-Fc-Avitag-8His / human CD132 ECD-Fc-FLAG (human)", "T1 construct": "in the assay a heterodimer of the two chains; also called hIL-2RβγECD-Fc; IL-2Rβγ ECD-Fc", "assay": "SPR (Biacore T-100), receptor-Fc captured by anti-human Fc, IL-2 as analyte, 1:1 binding model", "units": {"Kd": "nM"}}
{"binder": "B1", "Kd": 0.209}
{"biological_target": "T2, human IL-2Rαβγ (human, UniProt P01589 22-272; P14784 27-551; P31785 23-369)", "T2 sequence (looked up) 1": "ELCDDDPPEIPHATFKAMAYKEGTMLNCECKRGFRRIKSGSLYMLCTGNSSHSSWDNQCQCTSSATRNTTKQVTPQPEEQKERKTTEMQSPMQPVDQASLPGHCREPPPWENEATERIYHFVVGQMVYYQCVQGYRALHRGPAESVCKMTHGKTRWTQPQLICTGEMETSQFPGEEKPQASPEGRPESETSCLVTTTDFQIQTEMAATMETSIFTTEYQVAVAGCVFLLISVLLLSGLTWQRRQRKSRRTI", "T2 sequence (looked up) 2": "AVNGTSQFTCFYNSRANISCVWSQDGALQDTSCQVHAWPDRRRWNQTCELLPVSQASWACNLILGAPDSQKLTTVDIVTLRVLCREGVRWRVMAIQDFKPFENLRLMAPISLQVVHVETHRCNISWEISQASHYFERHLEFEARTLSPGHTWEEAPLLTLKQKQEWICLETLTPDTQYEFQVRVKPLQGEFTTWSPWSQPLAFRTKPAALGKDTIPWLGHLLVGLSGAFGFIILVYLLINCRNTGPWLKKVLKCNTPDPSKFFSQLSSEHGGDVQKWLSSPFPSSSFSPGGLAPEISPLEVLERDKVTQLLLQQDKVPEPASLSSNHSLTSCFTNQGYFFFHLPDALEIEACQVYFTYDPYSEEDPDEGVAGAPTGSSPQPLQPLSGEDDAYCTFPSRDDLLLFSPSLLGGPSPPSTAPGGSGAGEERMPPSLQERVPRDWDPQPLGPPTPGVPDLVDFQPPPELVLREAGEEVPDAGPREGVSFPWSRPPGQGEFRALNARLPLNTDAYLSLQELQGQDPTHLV", "T2 sequence (looked up) 3": "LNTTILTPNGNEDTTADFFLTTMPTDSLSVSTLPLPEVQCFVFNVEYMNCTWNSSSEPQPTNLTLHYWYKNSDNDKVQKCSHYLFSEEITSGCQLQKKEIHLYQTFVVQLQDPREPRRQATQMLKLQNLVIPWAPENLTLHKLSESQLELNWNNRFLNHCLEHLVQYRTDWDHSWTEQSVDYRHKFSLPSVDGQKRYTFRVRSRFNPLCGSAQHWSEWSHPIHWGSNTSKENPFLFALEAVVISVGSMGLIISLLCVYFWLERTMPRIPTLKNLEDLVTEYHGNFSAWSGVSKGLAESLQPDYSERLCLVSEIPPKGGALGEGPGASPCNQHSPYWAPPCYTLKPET", "assay": "cell-based or functional assay"}
{"binder": "B2", "Standardized EC50 ratio value": "< 5"}
{"binder": "B3", "Standardized EC50 ratio value": "< 5"}
{"binder": "B4", "Standardized EC50 ratio value": "< 5"}
{"binder": "B5", "Standardized EC50 ratio value": "< 5"}
{"binder": "B6", "Standardized EC50 ratio value": "< 5"}
{"binder": "B7", "Standardized EC50 ratio value": "< 5"}
{"binder": "B8", "Standardized EC50 ratio value": "< 5"}
{"binder": "B9", "Standardized EC50 ratio value": "< 5"}
{"binder": "B10", "Standardized EC50 ratio value": "< 5"}
{"binder": "B11", "Standardized EC50 ratio value": "< 5"}
{"binder": "B12", "Standardized EC50 ratio value": "< 5"}
{"binder": "B13", "Standardized EC50 ratio value": "< 5"}
{"binder": "B14", "Standardized EC50 ratio value": "< 5"}
{"biological_target": "T3, human CD25 ECD-Fc-Avitag (human)", "T3 construct": "Extracellular region of human CD25 fused to human IgG1 Fc with C-terminal Avitag; also called hCD25ECD-Fc", "assay": "SPR (Biacore T-100), receptor-Fc captured by anti-human Fc, IL-2 as analyte, steady state model", "units": {"Kd": "nM"}}
{"binder": "B1", "Kd": 15}
